Source: article PMC6919601, “Identification of Plasmodium dipeptidyl aminopeptidase allosteric inhibitors by high throughput screening” (PLoS ONE, 2019)
Values joined by “and” are separate entries in the source; they are usually repeats but may differ in a detail not shown here. Equal values may be shown once. Among all 110,000 compounds or so, about 230 (0.21%) showed an effect of 50% or more. Some of the results follow.

Target: DPAP1 (Plasmodium falciparum, UniProt Q8IIJ9)
Experiment: primary screen, percent inhibition; read by cleavage of a fluorogenic dipeptide substrate; higher = more effect of the substance
Parameters: species or system P. falciparum D10 trophozoite lysates; single well
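Also: 30 min substrate incubation versus DMSO and 10 µM JCP410 controls.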

Chain of DPAP1 (Q8IIJ9 whole entry, looked up): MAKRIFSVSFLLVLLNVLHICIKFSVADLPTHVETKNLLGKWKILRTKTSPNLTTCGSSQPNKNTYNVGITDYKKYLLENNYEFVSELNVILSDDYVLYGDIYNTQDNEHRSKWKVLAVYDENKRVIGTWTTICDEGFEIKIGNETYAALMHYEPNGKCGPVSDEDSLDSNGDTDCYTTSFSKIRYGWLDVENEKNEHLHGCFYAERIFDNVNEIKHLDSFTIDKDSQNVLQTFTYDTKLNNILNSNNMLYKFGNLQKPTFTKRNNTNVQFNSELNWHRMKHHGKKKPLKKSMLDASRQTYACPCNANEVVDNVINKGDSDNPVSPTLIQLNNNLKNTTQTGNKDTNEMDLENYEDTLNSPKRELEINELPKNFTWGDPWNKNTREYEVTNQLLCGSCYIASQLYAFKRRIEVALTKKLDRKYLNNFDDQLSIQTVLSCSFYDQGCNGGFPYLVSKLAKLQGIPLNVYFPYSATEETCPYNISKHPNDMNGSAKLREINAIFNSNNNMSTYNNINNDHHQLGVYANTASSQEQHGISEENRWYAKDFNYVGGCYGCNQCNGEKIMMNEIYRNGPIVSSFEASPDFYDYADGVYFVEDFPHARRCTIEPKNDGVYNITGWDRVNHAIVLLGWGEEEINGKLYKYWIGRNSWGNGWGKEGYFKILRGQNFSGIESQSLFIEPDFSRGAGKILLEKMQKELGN

Row | Compound | % Inhibition @ 10 uM
1 | O=c1oc2c(Cl)cc(Cl)cc2cc1-c1nc(-c2ccc(Cl)cc2)cs1 | 2.4%
2 | CC(C)(C)C(=O)Nc1ccc(C(=O)Nc2ccccc2O)cc1 | -0.216%
3 | COc1ccc(/C(O)=C/c2nc3ccc(C(=O)NCc4cccc(OC)c4)cc3nc2O)cc1 | 4.05%
4 | Cc1ccc(Cn2nc(-c3ccccc3)nc2-c2ccccc2)cc1 | -2.18%
5 | CCOc1cc(/C=C/c2cc(C(F)(F)F)nc(O)n2)ccc1O | -2.48%
6 | COc1ccc(C)cc1N(CC(=O)N(C)Cc1ccccc1)S(C)(=O)=O | -1.61%
7 | O=C(NCc1ccccc1)c1coc2nc3ccccc3nc12 | 1.42%
8 | COCCNc1nn2c(=O)c3c4c(sc3nc2c2ccccc12)CC(C)CC4 (stereo not shown) | -7.9%
9 | O=C(c1cc2ccccc2oc1=O)N1CCSC1c1ccc2c3c(cccc13)CC2 (stereo not shown) | 23.4%
10 | Cc1cc(-c2ccc(C)c(S(=O)(=O)N3CCOCC3)c2)on1 | -4.13%
11 | N#Cc1c(C(F)(F)F)cc(-c2cccs2)nc1SCC(=O)Nc1nccs1 | 0.121%
12 | CCOc1ccc(N2C(=O)CC(NCCc3cccc(F)c3)C2=O)cc1 (stereo not shown) | -0.48%
13 | CCOC(=O)C1=C(C)OC(N)=C(C#N)C1c1ccc2ccccc2c1 (stereo not shown) | -4.94%
14 | COc1ccccc1OCCn1c(SCC(=O)O)nc2ccccc21 | -13.3%
15 | Clc1ccccc1-c1nnc(-c2cccc(Cl)c2Cl)o1 | 11%
16 | O=C(NCCc1ccccc1)C1CCN(S(=O)(=O)c2ccc(Br)cc2)CC1 | 0.583%
17 | CCN1/C(=C\C(=O)c2ccco2)Sc2ccccc21 | -4.35%
18 | CCOC(=O)C1=C(NC(=O)c2ccc(C(C)(C)C)cc2)S/C(=C\c2ccc(C(=O)OC)cc2)C1=O | -6.42%
19 | Cc1cccc(N2C(=O)c3cccc4c(Cl)ccc(c34)C2=O)n1 | -3.04%
20 | Cc1ccc(C(=O)Nc2sc3c(c2C(=O)N(C)C)CCCCC3)cc1 | 4.05%
21 | OCCSc1nnc(COc2ccc(Br)cc2)n1Cc1ccccc1 | -4.91%
22 | CCCN1CC2=C(OC(N)=C(C#N)C2c2ccc(OC)cc2)/C(=C/c2ccc(OC)cc2)C1 (stereo not shown) | 47.6%
23 | COC(=O)/C(C#N)=C/c1c(Oc2cccc(C)c2C)nc2c(C)cccn2c1=O | -1.43%
24 | COc1ccc(S(=O)(=O)Nc2cc(Cl)ccc2OC)cc1 | 3.53%
25 | Cc1sc(Nc2ccc(C(=O)O)cc2)nc1-c1ccc(Cl)cc1 | 6.31%

Row | Compound | % Inhibition @ 10 uM
26 | CCCCn1c(CCCNC(=O)C(C)(C)C)nc2ccccc21 | -0.58%
27 | N#Cc1cccc(NC(=O)c2ccccc2Cl)c1 | 7.54%
28 | O=C(Nc1ccc(S(=O)(=O)N2CCCCCC2)cc1)Nc1cccc2ccccc12 | -0.48%
29 | O=[N+]([O-])c1ccccc1S(=O)(=O)Nc1cccc2cccnc12 | -3.48%
30 | O=[N+]([O-])c1ccccc1S(=O)(=O)N1CCN(c2ccc(F)cc2)CC1 | 0.827%
31 | C=CCOc1ccc(C2C(C(=O)c3ccc(OCC)cc3C)=C(O)C(=O)N2Cc2cccnc2)cc1 (stereo not shown) | 1.31%
32 | COc1ccc(N2C(=O)CC(NCCCN3CCOCC3)C2=O)cc1 (stereo not shown) | 4.07%
33 | CCC1=NC(CC)(CC)c2ccccc2O1 | 3.96%
34 | COCCCNC(=O)Cn1nc(C)c2c(C)n(-c3ccccc3)nc2c1=O | 2.31%
35 | CN1C(=O)C(O)=C(C(=O)c2ccccc2)C1c1ccccc1 (stereo not shown) | -0.711%
36 | Cc1ccc(CNC(=O)CCc2c(C)nc3nc(CNC(=O)c4cccc(F)c4)nn3c2C)cc1 | -2.17%
37 | O=C(/C=C/C=C(Cl)Cl)c1ccc(O)cc1 | 0.035%
38 | CCCCn1c(=O)c(C(=O)Nc2cccc(C)c2)c(O)c2ccccc21 | 2.03%
39 | O=C1C2CCCN2C(=O)N1CCCCN1CCN(c2cccc(C(F)(F)F)c2)CC1 (stereo not shown) | 1.64%
40 | Cc1cccc(OCCn2c(N)nc3ccccc32)c1 | 5.94%
41 | COC(=O)c1c(C(=O)OC)c2n(c1C)[C@@H](c1ccc(Cl)cc1)SC2 | -2.63%
42 | CCCCNC(=O)Nc1ccccc1C(=O)NCCC | 8.05%
43 | COc1ccccc1CNC(=O)c1cc(S(=O)(=O)N2CCCC2)cn1C | 2.81%
44 | Cc1c(C(=O)NCCCN2CCCCC2)oc2ccc3c(c12)C(=O)CC1(CCCC1)O3 | 0.623%
45 | CCCn1c(CCC(=O)O)ccc1-c1ccc(Br)cc1 | -1.1%
46 | C=C(C)[C@@H]1CC=C(CN(CCCN(C)C)CCCN(C)C)CC1 | -2.02%
47 | CCOC(=O)c1cc2c(=O)n3ccccc3nc2n(C(C)C)/c1=N\C(=O)c1ccc(OCC)cc1 | 2.84%
48 | CCn1c2ccccc2c2nnc(NCc3ccccn3)nc21 | -0.102%
49 | O=C(c1ccc(N2C(=O)C3CCCCC3C2=O)cc1)N1CCCCC1 (stereo not shown) | -1.43%
50 | Cc1c2cnn(CC(=O)NCCCN3C(C)CCCC3C)c(=O)c2c(C)n1Cc1ccccc1 (stereo not shown) | -2.39%

Row | Compound | % Inhibition @ 10 uM
51 | CCn1c2ccccc2c2nnc(-n3nc(C)cc3C)nc21 | -2.32%
52 | NCCc1n[nH]c(C(c2ccccc2)c2ccccc2)n1 | -6.71% and -8.11%
53 | Fc1ccc(Br)cc1SCCc1ccccn1 | -5.23%
54 | Cc1ccc(/C=C/C(=O)c2c(O)cc(C)oc2=O)cc1 | -0.902%
55 | CCOC(=O)c1c(C)sc2c1OC(N)=C(C#N)C2c1ccc(O)c(OC)c1 (stereo not shown) | 1.76%
56 | CC(C)OCc1nc(O)c2c(n1)-c1ccccc1CC21CCCC1 | 4.88%
57 | Cc1cc(C)n(-c2cc(Oc3ccccc3)ncn2)n1 | -0.884%
58 | CCC(Sc1nncn2c1cc1sccc12)C(=O)NCc1ccc(C)cc1 (stereo not shown) | -5.61%
59 | C=CCSc1nnc(NC(=O)c2cc(=O)c3cc(C)ccc3o2)s1 | -1.47%
60 | CC(Oc1cccc(Cl)c1)C(=O)Nc1cccc(F)c1 (stereo not shown) | -7.31%
61 | O=C(CCn1cccc1)NCC1COc2ccccc2O1 (stereo not shown) | -2.67%
62 | Cc1ccc(S(=O)(=O)NOCCCN2C(=O)c3ccccc3C2=O)cc1 | -0.992%
63 | CCOC(=O)c1cc(-c2ccccc2)sc1NC(=O)C(C(C)C)N1C(=O)c2ccccc2C1=O (stereo not shown) | -6.6%
64 | COc1ccc(C(=O)Nc2nc(-c3nnn(-c4ccc(C)cc4C)c3C)ns2)cc1 | 1.97%
65 | CCOC(=O)C1=C(CSc2nnc(C)s2)NC(=O)NC1c1ccc(Cl)cc1 (stereo not shown) | 0.9%
66 | CCn1nccc1C(=O)Nc1cccc(OC)c1 | -2.8%
67 | CCN(CC)CCCN(C)C(=O)Cn1ncc2c(=O)oc3ccc(C)cc3c21 | -7.13%
68 | O=C(NCCN1CCOCC1)C1CCC(CNS(=O)(=O)c2ccccc2)CC1 (stereo not shown) | 6.95%
69 | Cc1cccc(CN2C(=O)N/C(=C/c3ccc(O)c(Br)c3)C2=O)c1 | 7.64%
70 | O=C(Nc1ccc(Cl)cc1)N1CCN(C/C=C/c2ccccc2)CC1 | -0.116%
71 | CCCCNC(=O)COCc1cc(-c2ccc(F)cc2)on1 | -4.1%
72 | O=C(O)c1[nH]c2ccccc2c1CNCc1ccc2c(c1)OCO2 | -3.21%
73 | [O-][n+]1c2c([n+]([O-])c3cc(Br)ccc31)CCCC2 | 0.146%
74 | O=C(c1cc(-c2ccc(O)cc2)on1)N1CCc2ccccc2C1 | 0.723%
75 | N#Cc1ccccc1NC(=O)c1ccc(Br)cc1 | -4.01%

Row | Compound | % Inhibition @ 10 uM
76 | O=C1CCCC1NC(=O)[C@H](CS(=O)(=O)Cc1ccccc1OC(F)F)NC(=O)N1CCOCC1 (stereo partly shown) | 1.35%
77 | Cc1cccc(Cn2nc(C)c(NC(=O)c3ccc4c(c3)OCO4)c2C)c1 | -1.24%
78 | COc1ccc(C(=O)NCc2ccc(C)cc2)c(OC)n1 | 0.029%
79 | COc1ccc(-c2noc(-c3nnn(-c4ccc(Br)cc4F)c3N)n2)cc1 | 5.71%
80 | Cc1c(C#N)c2ccccc2n1CC(=O)NCc1ccc2c(c1)OCO2 | -0.941%
81 | CCc1nn(CC(=O)N2CCN(C(=O)c3ccco3)CC2)c(=O)c2cc3occc3n12 | -7.79%
82 | O=C(O)Cc1c(C(=O)O)[nH]c2ccccc12 | -2.21%
83 | Cc1cc(C)c2c(=O)c3c(oc2c1)C(=O)N(Cc1ccco1)C3c1ccc(Cl)cc1 (stereo not shown) | 1.67%
84 | CC(=O)N1CCc2c([nH]c3ccccc23)C1c1cccc(O)c1 (stereo not shown) | 4.55%
85 | Cc1[nH]c(C)c(C(=O)O)c1C=O | -1.97%
86 | Cn1c(=O)c2c(ncn2Cc2cc(-c3ccccc3)no2)n(C)c1=O | -7.15%
87 | CC1(C)CCCC2=C1CC(C(=O)O)C(C(=O)O)C2 (stereo not shown) | 1.9%
88 | COc1ccccc1OCc1ccc(C(=O)NCc2ccco2)o1 | -8.85%
89 | FC(F)(F)c1nc(NCC2CCCO2)nc2c1CCCCC2 (stereo not shown) | -0.972%
90 | CCOC(=O)c1nc2c(=O)oc3ccccc3c2n(CC)c1=O | -3.57%
91 | O=C(Nc1ccc(-c2nc3ccccc3[nH]2)cc1)C1CC1 | 18.3%
92 | N#C/C(=C/Nc1ccccc1)c1nc(-c2ccc(-c3ccccc3)cc2)cs1 | 2.22%
93 | Cc1ccc(Cn2nc(C)c(N)c2C)cc1 | -10.7%
94 | CCN1C(=O)/C(=C\c2cc(OC)ccc2OC)S/C1=N\c1ccccc1 | 3.83%
95 | Nc1c(N2CCCC2)cnn(-c2ccccc2)c1=O | 6.83%
96 | CCOC(=O)c1c(Cl)nc(Cl)c(N)c1Cl | -0.597%
97 | Cn1c(=O)c2c(nc(S(C)(=O)=O)n2C)n(C)c1=O | -0.671%
98 | Cc1cc2c(c(=O)o1)C(c1cccs1)C(C#N)=C(N)O2 (stereo not shown) | -1.93%
99 | O=C(Cn1cnc2onc(-c3ccc(F)cc3)c2c1=O)NCc1cccs1 | 5.84%
100 | Cc1ccc(S(=O)(=O)N(CC(=O)N2CCOCC2)c2ccc(C(C)C)cc2)cc1 | 1.67%
